Assay results published in PubChem BioAssay AID2147 (National Center for Advancing Translational Sciences (NCATS), 2009).
About 3,600 (1.6%) of roughly 230,000 compounds were called active. The shares of active, inactive and inconclusive entries below differ from those in the screen. The call rests on the fitted dose curve; in most records, active means well fitted inhibition curve with a large enough effect (not every such curve was filed as active); inconclusive means small, poorly fitted or top-dose-only effect, or another doubt; inactive means no such curve, though single readings can be large or run the other way. Where the call is inconclusive, the potency comes from a doubtful curve fit.

target: Lysine-specific demethylase 4E (Homo sapiens) (UniProt B2RXH2); assay: qHTS Assay for Inhibitors of Human Jumonji Domain Containing 2E (JMJD2E); settings: JMJD2E catalytic domain, FDH-coupled NADH fluorescence (FDH is formaldehyde dehydrogenase); series mostly up to 57.1 µM
Further: nearly all actives have a fitted effect of over 50% in size.
Potency means the concentration at half of the fitted maximal effect; tags describe the fitted curve by direction and shape.

UniProt B2RXH2, sequence (B2RXH2 whole entry, looked up, the tested form may be a part): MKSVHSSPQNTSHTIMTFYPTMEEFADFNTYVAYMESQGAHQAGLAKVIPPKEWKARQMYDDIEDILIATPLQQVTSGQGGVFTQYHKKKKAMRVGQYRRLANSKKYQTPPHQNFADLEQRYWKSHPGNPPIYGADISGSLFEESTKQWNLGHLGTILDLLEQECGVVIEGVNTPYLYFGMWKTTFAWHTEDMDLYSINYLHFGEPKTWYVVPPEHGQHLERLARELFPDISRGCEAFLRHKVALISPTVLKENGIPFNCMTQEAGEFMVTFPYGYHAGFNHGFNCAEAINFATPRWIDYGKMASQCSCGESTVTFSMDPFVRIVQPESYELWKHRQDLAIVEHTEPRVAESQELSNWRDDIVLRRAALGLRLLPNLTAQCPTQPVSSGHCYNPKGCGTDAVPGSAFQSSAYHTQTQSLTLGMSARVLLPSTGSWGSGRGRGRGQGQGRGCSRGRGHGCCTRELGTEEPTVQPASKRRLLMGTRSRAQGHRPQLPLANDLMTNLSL

SMILES	Potency
C/C(=N/NC(=O)c1ccccc1)C(=O)O	inconclusive: 31.6 µM [inhibitor, partial curve]
CC(=O)Oc1ccc2cc(-c3nc4ccccc4n3C)c(=O)oc2c1	inconclusive: 25.1 µM [inhibitor, partial curve]
CCc1ccc2nc(Nc3ccc(OC)cc3OC)c(C#N)cc2c1	inactive
CN(C)/C=C(\C#N)C(N)=C(C#N)C#N	inactive
Cc1cccc(Oc2coc3cc(OC(=O)c4cc5ccccc5oc4=O)ccc3c2=O)c1	inconclusive: 20 µM [inhibitor, partial curve]
CCCn1c(-c2ccc(F)cc2)nc2c(N3CCN(CCn4ccnc4)CC3)nc(C)nc21	inconclusive: 39.8 µM [inhibitor, single point]
CS(=O)(=O)Nc1cccc(-c2ccc3ncnc(NCc4cccnc4)c3c2)c1	inconclusive: 39.8 µM [inhibitor, single point]
Cc1cccc(C(=O)NC(C)C(c2cccs2)N2CCOCC2)c1 (stereo not drawn)	inconclusive: 25.1 µM [inhibitor, single point]
CCC1CCCCN1C(=O)CSc1nnc(-c2cccs2)o1 (stereo not drawn)	inconclusive: 39.8 µM [inhibitor, single point]
Cc1cc2n(c1)CCn1c(C)ccc1-2	inconclusive: 28.2 µM [inhibitor, partial curve]
O=C1c2nc3cc(-c4ccco4)[nH]n3c(=O)c2CN1C1CCCCC1	inconclusive: 31.6 µM [inhibitor, partial curve]
CC(C)(C)c1cc2cccnc2n1Cc1cccc(Cl)c1	inconclusive: 12.6 µM [inhibitor, partial curve]
O=C(Nc1ccccc1N1CCOCC1)c1ccc(Cl)nc1	inconclusive: 39.8 µM [inhibitor, single point]
CC(C)Cn1c(-c2ccccc2F)n[nH]c1=S	inconclusive: 39.8 µM [inhibitor, single point]
O=C1OC(c2cccs2)=N/C1=C/c1ccc(-c2cccc(C(=O)O)c2)o1	inconclusive: 31.6 µM [inhibitor, single point]
COc1ccc2[nH]c(C)c(CCN3C(=O)C4C5C=CC(C5)C4C3=O)c2c1 (stereo not drawn)	inactive
Cc1ccc2nc3c(c(N)c2c1)CCN3c1ccccc1	inconclusive: 28.2 µM [inhibitor, partial curve]
O=C(CN1CCOCC1)Nc1ccc2c(c1)OCO2	inactive
CCOC(=O)C1=C(C)NC2=C(C(=O)CCC2)C1c1ccc(N(C)C)cc1 (stereo not drawn)	inconclusive: 39.8 µM [inhibitor, single point]
COCCCNCCCCOc1ccc(Br)cc1Cl	inconclusive: 35.5 µM [inhibitor, single point]
COc1cc2c(cc1NC(=O)CN1CCN(S(=O)(=O)c3ccc(F)cc3)CC1)oc1ccccc12	inconclusive: 17.8 µM [inhibitor, partial curve]
C=CCn1c(NCCc2ccccc2)nc2c1c(=O)n(C)c(=O)n2C	inactive
c1ccc2c(c1)CCN(c1nc3ccccc3n3cnnc13)C2	inconclusive: 39.8 µM [inhibitor, single point]
COC(=O)c1cc(OC)c(OC)c(OC)c1[N+](=O)[O-]	inactive
Cc1cccc(NS(=O)(=O)c2ccc(C3CCCCC3)cc2)n1	inconclusive: 31.6 µM [inhibitor, partial curve]

SMILES	Potency
COc1cc2cc3c4c(cc(OC)c(OC)c4c2cc1OC)CCN3C	inconclusive: 28.2 µM [inhibitor, partial curve]
c1ccc2nc3c(nc2c1)sc1nc2ccccc2n13	inconclusive: 39.8 µM [inhibitor, single point]
COc1ccc(C2c3[nH]c4ccccc4c3CCN2CCCn2cccn2)c(C)c1C (stereo not drawn)	inconclusive: 31.6 µM [inhibitor, partial curve]
Cc1nnc(C)c2c(C)n(-c3ccc4ncccc4c3)c(C)c12	inconclusive: 28.2 µM [inhibitor, partial curve]
Cc1cc(C)nc(NNC2=CC(=[N+]3CCCC3)CCC2)n1	inactive
CCCCCCC1(C)NC(=S)N(c2ccccc2)N1 (stereo not drawn)	inconclusive: 28.2 µM [inhibitor, single point]
COc1ccc(C(=O)CSc2nnc(CNc3nc(-c4ccccc4)cs3)n2C)cc1	inactive
Cc1ccc(NC(=O)C2CC(=O)N(Cc3ccco3)C2)cc1 (stereo not drawn)	inactive
COc1cccc2cc(-c3csc(CCn4nc(C)cc4C)n3)c(=O)oc12	inconclusive: 22.4 µM [inhibitor, partial curve]
CN(C)/N=C/c1ccc(P(c2ccc(/C=N/N(C)C)o2)c2ccc(/C=N/N(C)C)o2)o1	inactive
CCC(C)(C)n1nnnc1C(c1cc2cc(OC)ccc2[nH]c1=O)N1CCc2ccccc21 (stereo not drawn)	inconclusive: 31.6 µM [inhibitor, partial curve]
Cc1cc(C)cc(NC(=S)NN)c1	inactive
c1ccc(Cc2nnc3sc(-c4ccc5c(c4)OCCO5)nn23)cc1	inconclusive: 39.8 µM [inhibitor, single point]
COc1ccc(-c2cc(=O)c3ccc(O)cc3o2)cc1	inactive
O=C(NCCSCc1c(F)cccc1Cl)c1ccc(CN2CCOCC2)cc1	inactive
CCN1CCN(C(=S)NCC2CCCO2)CC1 (stereo not drawn)	inconclusive: 25.1 µM [inhibitor, single point]
O=C1NC2=C(C(=O)OC2)C(c2ccc(OC(F)(F)F)cc2)N1 (stereo not drawn)	inactive
Cc1nc(-n2nnc3ccccc32)c2c3c(sc2n1)CCCC3	inconclusive: 25.1 µM [inhibitor, partial curve]
CCN=c1scc(C)n1/N=C/c1cc(Br)c(O)c(Br)c1	inconclusive: 31.6 µM [inhibitor, single point]
CCC1c2ccc(C)n2CCN1C(=O)Nc1ccccc1C(=O)OC (stereo not drawn)	inconclusive: 25.1 µM [inhibitor, partial curve]
N[C@H](Cc1ccc(Cl)cc1)C(=O)O	inconclusive: 39.8 µM [inhibitor, single point]
CCn1c(SCC(=O)N/N=C/C=C/c2ccco2)nc2ccccc21	inactive
CCS(=O)(=O)Nc1cccc(C2=NN(S(C)(=O)=O)C(c3ccccc3)C2)c1 (stereo not drawn)	inactive
COc1ccc(C2NC(C(=O)O)Cc3c2[nH]c2ccccc32)cc1OC (stereo not drawn)	inactive
CCOC(=O)CCCSc1nc(-c2ccc3c(c2)OCO3)cc(C(F)(F)F)c1C#N	inconclusive: 5.01 µM [inhibitor, partial curve]

SMILES	Potency
COc1cc(-c2nc(-c3ccccc3)c(-c3cccs3)[nH]2)cc(OC)c1OC	inconclusive: 20 µM [inhibitor, partial curve]
CN(C)/C=N/c1c(C#N)cnn1-c1ncnc2sc(-c3ccccc3)cc12	inconclusive: 31.6 µM [inhibitor, partial curve]
Cc1ccc(NC(=O)/C(C#N)=C/c2ccsc2)c(C)c1	inconclusive: 39.8 µM [inhibitor, single point]
COC(=O)C1=C(C)N(c2cccc3ccccc23)C(=O)C1	inconclusive: 31.6 µM [inhibitor, single point]
Cc1sc(NC(=O)C2C3CCC(O3)C2C(=O)O)nc1-c1ccc(CC(C)C)cc1 (stereo not drawn)	inconclusive: 35.5 µM [inhibitor, single point]
COc1ccc(C(=O)Oc2cccc(Nc3ncnc4ccccc34)c2)cc1OC	inconclusive: 28.2 µM [inhibitor, single point]
COc1cc(/C=N/NC(=S)Nc2cccc(S(=O)(=O)N(C)C)c2)cc(OC)c1O	inconclusive: 25.1 µM [inhibitor, partial curve]
Cc1nn(C(C)(C)C)c(N)c1-c1ccccc1	inactive
c1ccc(-c2oc3ncnc(NCCCN4CCOCC4)c3c2-c2ccccc2)cc1	inconclusive: 28.2 µM [inhibitor, partial curve]
COc1ccc(CCN2C(=O)CC(N3CCOCC3)C2=O)cc1 (stereo not drawn)	inactive
COCCCNC(=O)c1c(N)n(/N=C/c2cccs2)c2nc3ccccc3nc12	inconclusive: 8.91 µM [inhibitor, partial curve]
O=C(NCCCO)c1ccc2nc(-c3ccco3)c(-c3ccco3)nc2c1	active: 12.6 µM
COc1ccc(N=Nc2c(C)[nH][nH]c2=O)cc1	inactive
CN(C)S(=O)(=O)c1ccc2c(c1)nc(CCC(=O)Nc1ccc3c(c1)OCO3)n2C	inactive
O=C(N/N=C/c1c(O)n(-c2ccccc2Cl)c(=O)c2ccccc12)C1COc2ccccc2O1 (stereo not drawn)	inconclusive: 25.1 µM [inhibitor, partial curve]
CCCc1ccc(S(=O)(=O)NCCc2ccncc2)cc1	inactive
COC(=O)c1ccc(N)c(N=CC2=C(O)CC(C)(C)CC2=O)c1	inconclusive: 28.2 µM [inhibitor, single point]
Cc1nn(-c2ccccc2Cl)c(Cl)c1/C=N/Nc1cccc(C(=O)O)c1	inconclusive: 28.2 µM [inhibitor, partial curve]
Cc1cccc(C(=O)Nc2scc(CC(C)C)c2C(=O)O)c1	inactive
CSc1nc(-c2ccccc2)c(-c2ccccc2)[nH]1	inconclusive: 31.6 µM [inhibitor, partial curve]
O=[N+]([O-])c1cccnc1N/N=C/c1ccccc1O	inactive
CC(=O)Nc1nc2n(n1)C(c1ccc(F)cc1)C=C(c1ccccc1)N2 (stereo not drawn)	inconclusive: 31.6 µM [inhibitor, partial curve]
CCOC(=O)c1cn(Cc2cccc(Cl)c2)c2cc(C)nn2c1=O	inconclusive: 12.6 µM [inhibitor, partial curve]
